Reference: the RNAGym collection of RNA variant scans (doi:10.7554/elife.90254)
The source gives no read counts; variants with many changes may rest on few reads.

B1: LINE1-full (parent)
chain: UACGUAGGUGGUUUUCCCCUGAUAGUGCUAAGGGGGCCUGGAAGUUUGGACUGGGCAGAGCUCAACACAGCGUGGCAAAGUGGCUGUGGCUAGACUGCCUCUCUGGAUUCCUCGUCACUCAGCAGGGCAUCUCUGAGAGAAAUGCC

Variants of: B1
Test: self-cleavage, relative activity (ratio to wild type); higher = more cleavage; in vitro, sequencing; the parent is a self-cleaving ribozyme

Variant	self-cleavage
A42G U91C A117G	0.84
G7U U46A U102A U130C	1.78
A50G G135A U143A	0.59
U14C U112C U132C A138G	1.53
U12G U47C G75A A129G	0.57
U9A U14C A57G G135A	0.87
A31U U39C A59U U73A A77G A141G	1.67
A30G G33A A42G	0.8
U1G U13C U39C	0.9
A77U G86A U100A U102C	0.04
A2G U15C C17A U73A A142G	0.6
A67U U96A A129U G144A	0.18
U13C A57G U102C	0.16
U23C G53A U73C U102C A136U	1.08
A42G U87A A92G C123U	0.05
U5C G10A U12G A57G A67G A142G	0.84
U81A C95U A121G	0.42
C3A U14C G34U A107U	1.25
U13A U14C A31U G48A U96C U104A	0.07
C3U U15C A65G U96A	0.32
U9C U47A A65G	0.12

Variant	self-cleavage
U45C U62C U87C G114A	0.07
G10A A67G A78G	0.21
U26C A30G A64G U115C	0
U52C A69U A78G	0.12
U1C U26A G35U U102C	0.41
U14C U26C A67G A69G A141G	0
U14C U20A U81C U115G	0
A67G C76U U100C	0.92
A22U A57U C99U C113A	0.01
U13C U20A A79G A121G A141G	0.42
U13A U45C U73A A92G	0.05
A22U A24G U102A	2.08
U47A C68A U85C U132C	0.04
A57G U96A A141G	0.04
U26C U52C U115C A121U	1.84
U14C C51U A79U	0.25
G7A A117U C128U U143C	1.15
U15C U20A A50G A57G C95U U96C	0.34
A78C A79G U100C	1.15
A57U C66U A136G	0.02
G7C A77U A78G	0.92

Variant	self-cleavage
U39A U85A U96C	0.05
U14C A67U A129G	0.12
U12C A77G A121C U134G	2.22
U73A A79G U87A U130C	0.1
U5C C98U A140U	1.13
G32C U52A G72U	1.03
A50G A77G A124G A129G	2.3
G34A U87C U91A C103A	0.07
A24G U62C U96A U134C	0
A69G A107U U108C	1.74
U12C A121U A129U U130C	1.43
U46C G53U A64U A129G	0.68
U13C U104A U115A	1.16
U15C A57G G89A	0.09
A64G C71A U134C	0.03
G7U G36C U45C U102C A138U	1.19
U15A C19U U85C U134C A140G	0.61
U13C A43G A92G U134G	0.16
U14C U87C U115A	0.18
U62C C111U U119C	0.07
U13C A31G U130A	0.8

Variant	self-cleavage
G53A U104A A121C A136G C145U	1.56
A24G A92U U119A	0.53
A57G G74A U96A	0.05
U20C G35A U115C G122A	1.69
U1C U26A A117G A138G	1.41
U1C U46C U62A A79G G106C	0.06
U12C U13G G86A U134C	0.36
U20C U96C A138G U143C	0.42
G36A A92C C111U	0.06
U39C A107U U112C	1.65
A59U U100C U119C	1.65
C3A C103A U112C	1.08
A2G A43U U96C	0.21
C68A U104C U134C A140G	0
A77G G126A U130A U132A	1.98
C56U U115C U134A	0.22
U13C U20G G49A A67U U81A U100A	0.14
A79U U104C A107G	2.97
U13C U46C A65G G80A U100A C113U A121G A124G	0.16
U12C U14A A138G	1.67
